The other results are listed elsewhere or left out.
Experiments:
Experiment in all cases: glycan array binding signal (z-score within array); higher = stronger binding
Details in all cases: glycan notation: IUPAC condensed, linker removed
[1] = biological target: Fuc(a1-3)[Gal3S(b1-4)]GlcNAc6S
Outline: (§1)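 Glycan array binding is given as a within-array Z-score, which can be read as non-binding when negative. The arrays, 3228 of them, came from the Consortium for Functional Glycomics database and were retained only where the protein sequence was available. Z-scores were averaged across arrays of the same protein sequence at different concentrations or buffers and across linkers.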

[2] = biological target: Fuc(a1-3)[GalNAc(b1-4)]GlcNAc
Outline: as §1

[3] = biological target: Fuc(a1-3)[GalNAc(b1-4)]GlcNAc6S
Outline: as §1

Fuc(a1-4)GlcNAc = biological target: Fuc(a1-4)GlcNAc
Outline: as §1

Fuc(b1-3)GlcNAc = biological target: Fuc(b1-3)GlcNAc
Outline: as §1

Gal(a1-2)Gal = biological target: Gal(a1-2)Gal
Outline: as §1

Gal(a1-3)Gal = biological target: Gal(a1-3)Gal
Outline: as §1

Gal(a1-3)Gal(b1-3)GlcNAc = biological target: Gal(a1-3)Gal(b1-3)GlcNAc
Outline: as §1

[4] = biological target: Gal(a1-3)Gal(b1-3)GlcNAc(b1-2)Man
Outline: as §1

[5] = biological target: Gal(a1-3)Gal(b1-3)GlcNAc(b1-2)Man(a1-3)[Gal(a1-3)Gal(b1-3)GlcNAc(b1-2)Man(a1-6)]Man(b1-4)GlcNAc(b1-4)GlcNAc
Outline: as §1

[6] = biological target: Gal(a1-3)Gal(b1-3)GlcNAc(b1-3)GalNAc
Outline: as §1

[7] = biological target: Gal(a1-3)Gal(b1-3)GlcNAc(b1-6)GalNAc
Outline: as §1

[8] = biological target: Gal(a1-3)Gal(b1-3)[Fuc(a1-4)]GlcNAc(b1-2)Man(a1-3)[Gal(a1-3)Gal(b1-3)[Fuc(a1-4)]GlcNAc(b1-2)Man(a1-6)]Man(b1-4)GlcNAc(b1-4)GlcNAc
Outline: as §1

Gal(a1-3)Gal(b1-4)Glc = biological target: Gal(a1-3)Gal(b1-4)Glc
Outline: as §1

Gal(a1-3)Gal(b1-4)GlcNAc = biological target: Gal(a1-3)Gal(b1-4)GlcNAc
Outline: as §1

[9] = biological target: Gal(a1-3)Gal(b1-4)GlcNAc(b1-2)Man
Outline: as §1

[10] = biological target: Gal(a1-3)Gal(b1-4)GlcNAc(b1-2)Man(a1-3)[Gal(a1-3)Gal(b1-4)GlcNAc(b1-2)Man(a1-6)]Man(b1-4)GlcNAc(b1-4)GlcNAc
Outline: as §1

[11] = biological target: Gal(a1-3)Gal(b1-4)GlcNAc(b1-3)GalNAc
Outline: as §1

[12] = biological target: Gal(a1-3)Gal(b1-4)GlcNAc(b1-6)GalNAc
Outline: as §1

[13] = biological target: Gal(a1-3)Gal(b1-4)[Fuc(a1-3)]GlcNAc
Outline: as §1

[14] = biological target: Gal(a1-3)Gal(b1-4)[Fuc(a1-3)]GlcNAc(b1-2)Man(a1-3)[Gal(a1-3)Gal(b1-4)[Fuc(a1-3)]GlcNAc(b1-2)Man(a1-6)]Man(b1-4)GlcNAc(b1-4)GlcNAc
Outline: as §1

Gal(a1-3)GalNAc = biological target: Gal(a1-3)GalNAc
Outline: as §1

[15] = biological target: Gal(a1-3)[Gal(a1-4)]Gal(b1-4)GlcNAc
Outline: as §1

[16] = biological target: Gal(a1-4)Gal(b1-3)GlcNAc(b1-2)Man(a1-3)[Gal(a1-4)Gal(b1-3)GlcNAc(b1-2)Man(a1-6)]Man(b1-4)GlcNAc(b1-4)GlcNAc
Outline: as §1

Gal(a1-4)Gal(b1-4)Glc = biological target: Gal(a1-4)Gal(b1-4)Glc
Outline: as §1

Gal(a1-4)Gal(b1-4)GlcNAc = biological target: Gal(a1-4)Gal(b1-4)GlcNAc
Outline: as §1

[17] = biological target: Gal(a1-4)Gal(b1-4)GlcNAc(b1-2)Man(a1-3)[Gal(a1-4)Gal(b1-4)GlcNAc(b1-2)Man(a1-6)]Man(b1-4)GlcNAc(b1-4)GlcNAc
Outline: as §1

[18] = biological target: Gal(a1-4)Gal(b1-4)GlcNAc(b1-3)Gal(b1-4)Glc
Outline: as §1

Gal(a1-4)GlcNAc = biological target: Gal(a1-4)GlcNAc
Outline: as §1

Gal(a1-6)Glc = biological target: Gal(a1-6)Glc
Outline: as §1

Gal(b1-2)Gal = biological target: Gal(b1-2)Gal
Outline: as §1

Gal(b1-3)Gal = biological target: Gal(b1-3)Gal
Outline: as §1

Gal(b1-3)Gal(b1-4)GlcNAc = biological target: Gal(b1-3)Gal(b1-4)GlcNAc
Outline: as §1

Gal(b1-3)GalNAc = biological target: Gal(b1-3)GalNAc
Outline: as §1

[19] = biological target: Gal(b1-3)GalNAc(a1-3)[Fuc(a1-2)]Gal(b1-4)Glc
Outline: as §1

[20] = biological target: Gal(b1-3)GalNAc(a1-3)[Fuc(a1-2)]Gal(b1-4)GlcNAc
Outline: as §1

Gal(b1-3)GalNAc(b1-3)Gal = biological target: Gal(b1-3)GalNAc(b1-3)Gal
Outline: as §1

[21] = biological target: Gal(b1-3)GalNAc(b1-3)Gal(a1-4)Gal(b1-4)Glc
Outline: as §1

[22] = biological target: Gal(b1-3)GalNAc(b1-4)Gal(b1-4)Glc
Outline: as §1

[23] = biological target: Gal(b1-3)GalNAc(b1-4)[Neu5Ac(a2-3)]Gal(b1-4)Glc
Outline: as §1

Gal(b1-3)GlcNAc = biological target: Gal(b1-3)GlcNAc
Outline: as §1

[24] = biological target: Gal(b1-3)GlcNAc(a1-3)Gal(b1-4)GlcNAc
Outline: as §1

[25] = biological target: Gal(b1-3)GlcNAc(a1-6)Gal(b1-4)GlcNAc
Outline: as §1

Gal(b1-3)GlcNAc(b1-2)Man = biological target: Gal(b1-3)GlcNAc(b1-2)Man
Outline: as §1

[26] = biological target: Gal(b1-3)GlcNAc(b1-2)Man(a1-3)[Gal(b1-3)GlcNAc(b1-2)Man(a1-6)]Man(b1-4)GlcNAc(b1-4)GlcNAc
Outline: as §1

B1: PfulAvr4 (Pseudocercospora fuligena) (protein)
chain: HHHHHHDYKDDDDKTYVQDKTPAFVCPAADIKTTKCLGPKDCLYPSPKTCNGYIQCSPADDSYLTGIIHEMPCPSGLLWNDNKKWCDWPENTTCGLVKSAGATEVDATKQGPTPGKYHG
glycan array binding signal (z-score) [1]: -0.035
glycan array binding signal (z-score) [2]: -0.015
glycan array binding signal (z-score) [3]: -0.177
glycan array binding signal (z-score) (Fuc(a1-4)GlcNAc): 0.187
glycan array binding signal (z-score) (Fuc(b1-3)GlcNAc): -0.033
glycan array binding signal (z-score) (Gal(a1-2)Gal): -0.068
glycan array binding signal (z-score) (Gal(a1-3)Gal): -0.087
glycan array binding signal (z-score) (Gal(a1-3)Gal(b1-3)GlcNAc): -0.1
glycan array binding signal (z-score) [4]: -0.173
glycan array binding signal (z-score) [5]: 0.128
glycan array binding signal (z-score) [6]: -0.191
glycan array binding signal (z-score) [7]: -0.006
glycan array binding signal (z-score) [8]: -0.138
glycan array binding signal (z-score) (Gal(a1-3)Gal(b1-4)Glc): -0.096
glycan array binding signal (z-score) (Gal(a1-3)Gal(b1-4)GlcNAc): -0.07
glycan array binding signal (z-score) [9]: -0.157
glycan array binding signal (z-score) [10]: 0.001
glycan array binding signal (z-score) [11]: -0.111
glycan array binding signal (z-score) [12]: -0.144
glycan array binding signal (z-score) [13]: -0.176
glycan array binding signal (z-score) [14]: -0.092
glycan array binding signal (z-score) (Gal(a1-3)GalNAc): -0.078
glycan array binding signal (z-score) [15]: -0.061
glycan array binding signal (z-score) [16]: 0.042
glycan array binding signal (z-score) (Gal(a1-4)Gal(b1-4)Glc): -0.097
glycan array binding signal (z-score) (Gal(a1-4)Gal(b1-4)GlcNAc): -0.118
glycan array binding signal (z-score) [17]: -0.032
glycan array binding signal (z-score) [18]: -0.197
glycan array binding signal (z-score) (Gal(a1-4)GlcNAc): -0.072
glycan array binding signal (z-score) (Gal(a1-6)Glc): -0.04
glycan array binding signal (z-score) (Gal(b1-2)Gal): -0.01
glycan array binding signal (z-score) (Gal(b1-3)Gal): -0.139
glycan array binding signal (z-score) (Gal(b1-3)Gal(b1-4)GlcNAc): -0.2
glycan array binding signal (z-score) (Gal(b1-3)GalNAc): -0.133
glycan array binding signal (z-score) [19]: -0.132
glycan array binding signal (z-score) [20]: -0.219
glycan array binding signal (z-score) (Gal(b1-3)GalNAc(b1-3)Gal): -0.057
glycan array binding signal (z-score) [21]: -0.044
glycan array binding signal (z-score) [22]: -0.039
glycan array binding signal (z-score) [23]: -0.115
glycan array binding signal (z-score) (Gal(b1-3)GlcNAc): -0.005
glycan array binding signal (z-score) [24]: -0.02
glycan array binding signal (z-score) [25]: -0.159
glycan array binding signal (z-score) (Gal(b1-3)GlcNAc(b1-2)Man): -0.064
glycan array binding signal (z-score) [26]: 0.134

From the supplement of paper PMC8728848
